Article PMC4336329 (PLoS ONE, 2015)
Hit rate of the full screen: of about 310,000 compounds, about 14,000 (4.5%) showed an effect of 50% or more. The effect is printed as a negative number. This is one part of the list.

Biological target: human ether-à-go-go-related gene (hERG) potassium channel (human, UniProt Q12809)
Test: primary screen, population patch clamp on CHO cells stably expressing hERG
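Also: peak tail current of the secondary pulse compared with the same well before compound.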

human ether-à-go-go-related gene (hERG) potassium channel, sequence (Q12809 whole entry, looked up): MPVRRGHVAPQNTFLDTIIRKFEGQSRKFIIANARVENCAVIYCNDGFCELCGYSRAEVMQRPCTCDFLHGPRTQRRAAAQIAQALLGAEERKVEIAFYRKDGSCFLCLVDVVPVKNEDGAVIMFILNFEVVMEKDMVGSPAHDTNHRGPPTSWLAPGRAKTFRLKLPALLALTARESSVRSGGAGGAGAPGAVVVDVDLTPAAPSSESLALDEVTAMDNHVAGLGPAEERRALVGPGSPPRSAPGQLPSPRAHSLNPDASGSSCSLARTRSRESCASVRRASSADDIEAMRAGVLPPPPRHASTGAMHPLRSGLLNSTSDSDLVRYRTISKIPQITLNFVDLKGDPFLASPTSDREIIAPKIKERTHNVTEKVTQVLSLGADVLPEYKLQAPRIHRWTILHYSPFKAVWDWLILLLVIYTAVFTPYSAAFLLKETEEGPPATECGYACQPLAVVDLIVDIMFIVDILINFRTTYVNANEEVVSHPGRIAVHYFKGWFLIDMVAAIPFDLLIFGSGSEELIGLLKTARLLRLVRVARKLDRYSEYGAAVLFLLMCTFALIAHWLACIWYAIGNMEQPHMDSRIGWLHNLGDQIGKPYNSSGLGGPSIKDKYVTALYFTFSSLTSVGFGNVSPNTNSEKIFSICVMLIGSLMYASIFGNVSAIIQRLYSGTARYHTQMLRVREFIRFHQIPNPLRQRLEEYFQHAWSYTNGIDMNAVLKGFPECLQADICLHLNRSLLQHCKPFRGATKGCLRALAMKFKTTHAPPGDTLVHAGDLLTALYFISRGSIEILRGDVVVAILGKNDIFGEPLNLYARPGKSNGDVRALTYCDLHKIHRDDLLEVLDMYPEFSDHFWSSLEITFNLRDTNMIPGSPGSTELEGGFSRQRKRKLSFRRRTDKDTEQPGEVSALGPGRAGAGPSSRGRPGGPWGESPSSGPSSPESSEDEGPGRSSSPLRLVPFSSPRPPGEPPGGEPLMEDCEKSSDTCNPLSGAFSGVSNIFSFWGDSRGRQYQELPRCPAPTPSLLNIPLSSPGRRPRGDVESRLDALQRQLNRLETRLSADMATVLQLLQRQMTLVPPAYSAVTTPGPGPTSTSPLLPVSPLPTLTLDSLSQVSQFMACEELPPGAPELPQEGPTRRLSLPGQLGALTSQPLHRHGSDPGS

Row | SMILES | hERG current change (%, negative = inhibition) at 10uM [%]
1 | CC1CCN(CCCn2c(SCC(=O)Nc3ccccc3Cl)nc3ccccc3c2=O)CC1 | -70.8
2 | COc1ccc(S(=O)(=O)N2CCCC2CNC(=O)C(=O)NCc2cccs2)cc1 (stereo not drawn) | -17.9
3 | CCC(=O)Nc1ccc(Cl)c(NC(=O)C(C)C)c1 | -0.902
4 | CCOc1ccc(S(=O)(=O)N2CCC(C(=O)OC(C)C(=O)N3CCOCC3)CC2)cc1 (stereo not drawn) | -25.2
5 | Cc1ccc(NC(=O)CS(=O)CC(=O)N(c2ccc(C)cc2)C(C)C(=O)NC2CCCCC2)cc1 (stereo not drawn) | -14.1
6 | O=C(c1cc2ccccc2oc1=O)N(Cc1ccccc1)C1CCS(=O)(=O)C1 (stereo not drawn) | -12.2
7 | COc1ccc(NC(=O)Nc2nnc(N3CCC(C)CC3)s2)cc1OC | -0.885
8 | Cc1ccc(C2CC(c3ccc(C)cc3)n3nc(N)nc3N2)cc1 (stereo not drawn) | -10.6
9 | CCOC(=O)C1=C(C)N=C2SCCC(=O)N2C1c1sccc1C (stereo not drawn) | 2.53
10 | CCn1c(CCNC(=O)c2ccc(Cl)c(Cl)c2)nnc1SCCOc1ccc(OC)cc1 | -8.77
11 | CC(=O)c1ccc(N2CCN(C(=O)c3ccc(Cl)c(NC4=NC5CS(=O)(=O)CC5S4)c3)CC2)cc1 (stereo not drawn) | 12
12 | O=C(C1=C(O)C(=O)N(Cc2ccco2)C1c1cccc([N+](=O)[O-])c1)c1ccco1 (stereo not drawn) | 5.7
13 | Cc1ccc(-c2nn(CC(=O)Nc3cccnc3)c(=O)c3ccccc23)cc1 | 3.28
14 | C=CCn1c(SCc2c(C)noc2C)nc2sc(C)c(C)c2c1=O | -11.2
15 | COc1cc2nc(CN(C)Cc3nc4ccccc4c(=O)[nH]3)[nH]c(=O)c2cc1OC | -3.98
16 | CCn1nc(C)c(Br)c1-c1nc(CS(=O)(=O)c2ccc(F)cc2)no1 | -42.6
17 | COCCN1Cc2cccc(C(=O)Nc3c(C)cccc3C)c2C1=O | -1.56
18 | COc1cc(C2NC(=O)NC(O)(C(F)(F)F)C2C(=O)c2cccs2)ccc1O (stereo not drawn) | -5.38
19 | O=C1C=C(c2cccc3c2sc2ccccc23)C[C@@H](c2ccc(Cl)cc2)C1 | 4.76
20 | Cc1sc(NC(=O)c2cccs2)nc1-c1ccccc1 | -0.37
21 | O=C(CSc1nc(-c2ccccc2)cc(=O)[nH]1)NCc1ccc2c(c1)OCO2 | 4.58
22 | COc1ccc(OC)c(-n2c(SCC(=O)Nc3cc(C)on3)nnc2-c2c[nH]c3ccccc23)c1 | -19.6

Row | SMILES | hERG current change (%, negative = inhibition) at 10uM [%]
23 | COc1cc2nc(CN3CCN(S(=O)(=O)c4ccc(Cl)cc4)CC3)[nH]c(=O)c2cc1OC | -58.2
24 | O=C(COC(=O)CNC(=O)c1ccccc1Cl)Nc1ccccc1Cl | 17.1
25 | COc1cccc2cc(C(=O)CS(=O)(=O)c3ccc(C(C)(C)C)cc3)c(=O)oc12 | 17.1
26 | CN(CC(=O)O/N=C(\N)c1ccccn1)S(=O)(=O)c1ccccc1 | -4.98
27 | COc1ccc(S(=O)(=O)N2CCN(C(=O)NC3CCCCC3)CC2)cc1OC | -17.7
28 | CCCn1c2ccccc2c2nnc(SCCN3CCOCC3)nc21 | -9.15
29 | O=C(CCCc1ccccc1)Nc1ccccn1 | 5.69
30 | COc1ccc(NC(=O)CSc2nnc(CNc3ccc(C)cc3)n2C)cc1 | 25.2
31 | COc1ccc(Cl)cc1NC(=S)NCCCN1CCCC1=O | 2.39
32 | COc1cc2c(cc1OC)C(NC(=O)c1ccc(C)cc1)CC2=O (stereo not drawn) | -2.85
33 | O=C(Nc1ccc2c(c1)OCCO2)c1ccc(Cl)cc1 | 6.17
34 | CNC(=S)N(Cc1ccco1)Cc1cc2cc(OC)ccc2[nH]c1=O | 8.27
35 | Cc1c(C(=O)NCC2CCCO2)oc2ccccc12 (stereo not drawn) | -1.51
36 | CCc1cccc(C)c1NC(=O)COC(=O)Cc1ccsc1 | 10.4
37 | COc1ccc(C(C(=O)Nc2ccc(C(C)C)cc2)N(C)C(=O)CNC(C)=O)cc1 (stereo not drawn) | -36.7
38 | Fc1ccc(C(CNC(=S)NC2CCCCC2)N2CCOCC2)cc1 (stereo not drawn) | 20.9
39 | Cc1ccc(C)c(OCc2ccc(C(=O)N3N=C(C(F)F)CC3(O)C(F)F)o2)c1 (stereo not drawn) | 7.75
40 | O=C1C2C3C=CC(C3)C2C(=O)N1CCCCN1C(=O)C2C3C=CC(C3)C2C1=O (stereo not drawn) | 15.1
41 | C=CCN(C(=O)Cn1ncc2c1-c1cc(C)ccc1OC2)c1ccccc1 | -24.9
42 | Cc1cc(=O)c(C(=O)O)nn1-c1ccccc1Cl | 21.4
43 | CC(=O)NC1C(Oc2cccc(C)c2)OC2COC(c3ccco3)OC2C1O (stereo not drawn) | -2.31
44 | COC(=O)CSc1nnc(NC(=O)CCc2ccccc2)s1 | 19.4

Row | SMILES | hERG current change (%, negative = inhibition) at 10uM [%]
45 | CCOC(=O)C1=C(N)OC(C)=C(C(=O)OCCOC)C12C(=O)Nc1ccccc12 (stereo not drawn) | 9.07
46 | CC(=O)Nc1ccc(NC(=O)C(=O)N/N=C/c2cccnc2)cc1 | 15
47 | CCCn1nc(C(=O)NNC(=O)CSCC(=O)Nc2cc(C)on2)c2ccccc2c1=O | 4.74
48 | Cn1c(=O)oc2cc(S(=O)(=O)NCc3ccccn3)ccc21 | 8.11
49 | COc1ccc(/C=N\NC(=O)c2ccccc2F)cc1COc1ccc(F)cc1F | 11.7
50 | CCN1CCN(C(=O)c2ccc(COc3cccc(Cl)c3)o2)CC1 | -23.7
51 | O=C(NCc1ccc(Cl)cc1)C(=O)NCC1OCCN1C(=O)c1cccs1 (stereo not drawn) | -7.77
52 | Cc1ccc(-n2ccc(-c3nn(-c4ccccc4)ccc3=O)n2)cc1 | -11.4
53 | O=C(Cn1cccc1C(=O)c1ccccc1)NCCCN1CCOCC1 | 13.4
54 | COc1ccc2ncc(S(=O)(=O)c3ccccc3)c(N3CCN(c4ccccc4)CC3)c2c1 | -8.4
55 | Cc1ccc(S(=O)(=O)N(CC(O)CN2CCOCC2)c2cc(Cl)ccc2Cl)cc1.Cl (stereo not drawn) | -31.9
56 | COP(=O)(NC(=O)C(Cl)(Cl)Cl)OC | 7.96
57 | Cc1ccc(C)n1-n1cnc2sc3c(c2c1=O)CCCCC3 | -19.6
58 | COc1ccc(C(=O)Nc2ccccc2C(=O)N/N=C/c2ccccn2)cc1OC | 9.73
59 | COc1cc(Cl)cc(/C=N/NC(N)=O)c1O | 11.3
60 | CC(C)CNC(=S)Nc1ccc(Oc2ccccc2)cc1 | -5.91
61 | CN1C(=O)c2c(sc3c2CC(C)(C)SC3)N2CCN=C12.Cl | -72.6
62 | O=C(NC1CCCC1)C(c1ccc(F)cc1)N(Cc1ccccc1)C(=O)c1csnn1 (stereo not drawn) | -11.9
63 | CC(=O)OCC[n+]1c(C)n(-c2ccccc2)c2ccc(Cl)cc21.[I-] | -4.75
64 | CC(=O)c1cccc(S(=O)(=O)N2CCC(C(=O)OC3CCOC3=O)CC2)c1 (stereo not drawn) | -7.44
65 | CC1c2[nH]c3ccccc3c2CCN1S(C)(=O)=O (stereo not drawn) | 3.54
66 | COc1ccccc1CNC(=O)c1cc2sccc2n1C | 0.117

Row | SMILES | hERG current change (%, negative = inhibition) at 10uM [%]
67 | COc1ccccc1-n1cc(C(=O)NCC(=O)N2CCN(Cc3ccccc3)CC2)c2ccccc2c1=O | -23.3
68 | O=C(Cn1cnc2c(nnn2Cc2ccccc2)c1=O)NCc1ccccc1Cl | 5.76
69 | O=C(O)c1ccc(NC(=O)c2ccccc2NC(=O)c2ccccc2Br)cc1 | 12.1
70 | C=CCOn1c(=O)c(-c2cc3ccccc3o2)[n+]([O-])c2ccccc21 | 16.8
71 | COc1cccc(-c2onc3ccc(C(C)=O)cc23)c1 | 9.66
72 | Cc1ccc(OCC(=O)Nc2ccccc2Sc2ccccc2)c([N+](=O)[O-])n1 | 3.03
73 | CCCn1c(NC(=O)c2ccc([N+](=O)[O-])o2)nc2ccccc21 | -10.8
74 | CCn1cc(C(=O)NCc2ccccc2OC)c(=O)c2cc(S(=O)(=O)N(C)C)ccc21 | 4.32
75 | COc1cc2nc(-c3ccccc3C)oc(=O)c2cc1OC | 12.8
76 | CCC(=O)NNc1ncnc2c1cnn2C | -0.215
77 | CSCCC(NC(=O)COc1ccccc1)C(=O)N(C)CC(=O)Nc1c(C)cccc1C (stereo not drawn) | -0.078
78 | CC1CCc2c(sc3[nH]c(=S)n(C)c(=O)c23)C1 (stereo not drawn) | 27.7
79 | Cc1c(C)c2ccc(OCC(=O)NCCCn3ccnc3)cc2oc1=O | 14
80 | NC(N)=N/N=C/c1ccc(OCc2ccc(Cl)cc2)cc1 | -27.2
81 | Cn1nc([N+](=O)[O-])nc1Oc1ccccc1C(=O)N1CCOCC1 | 17.4
82 | Cn1cc(CNC(=O)C23CC4CC(CC(C4)C2)C3)cn1 | 19
83 | c1ccc(Cn2ncc3c(N4CCCCC4)ncnc32)cc1 | -14.8
84 | COc1ccc(C2=[N+]([O-])C(C)(C)N(O)C2C)cc1 (stereo not drawn) | 5.42
85 | Cc1ccc(NC(=O)Cn2cccc2)c(Br)c1 | 4.92
86 | Cc1cc(=O)[nH]c(SCC(=O)/C=C2\N(C)c3ccccc3C2(C)C)n1 | -5.21
87 | Cc1ccc2[nH]c3c(=O)n(CC(=O)N4CCN(C)CC4)ncc3c2c1 | -1.46
